In patent US20260022143A1, “Cyclic Peptide Inhibitors of IL-23” (JANSSEN PHARMACEUTICA NV, priority 2022, published 2026):

Target: T1, IL-23R (Homo sapiens, UniProt Q5VWK5)
T1 construct: host or cells: HEK293
T1 sequence (Q5VWK5 24-629): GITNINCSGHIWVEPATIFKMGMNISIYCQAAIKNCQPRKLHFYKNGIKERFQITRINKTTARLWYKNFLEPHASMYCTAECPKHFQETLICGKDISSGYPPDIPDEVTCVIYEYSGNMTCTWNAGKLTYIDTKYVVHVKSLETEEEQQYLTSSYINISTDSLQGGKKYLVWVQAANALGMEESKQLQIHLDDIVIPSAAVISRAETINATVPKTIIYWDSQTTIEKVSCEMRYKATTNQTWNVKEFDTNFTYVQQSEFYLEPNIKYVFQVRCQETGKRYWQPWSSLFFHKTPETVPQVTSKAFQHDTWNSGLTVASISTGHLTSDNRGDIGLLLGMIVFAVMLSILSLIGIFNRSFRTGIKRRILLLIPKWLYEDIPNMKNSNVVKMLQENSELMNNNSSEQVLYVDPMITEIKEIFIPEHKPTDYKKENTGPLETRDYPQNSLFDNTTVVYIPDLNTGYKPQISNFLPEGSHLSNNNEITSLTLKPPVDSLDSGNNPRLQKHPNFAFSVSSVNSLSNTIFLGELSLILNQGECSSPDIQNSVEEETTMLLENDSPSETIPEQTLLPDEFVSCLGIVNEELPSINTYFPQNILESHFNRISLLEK
Experiment: IL23R Reporter Assay
Format: cell-based
Details: IL23R Reporter Assay (micromolar), HEK293 cells containing IL-23R, IL-12RP1 and STAT-inducible firefly luciferase reporter; 10 ng/mL IL-23 (EC90); 5 h at 37° C.

| Structure (SMILES) | IC50 [nM] |
| --- | --- |
| CC(=O)NCCCC[C@@H]1NC(=O)[C@H](Cc2c[nH]c3c(C)cccc23)NC(=O)[C@H]([C@@H](C)O)NC(=O)[C@H](CC(N)=O)NC(=O)[C@@H](NC(C)=O)C(C)(C)SSC(C)(C)[C@@H](C(=O)N[C@@H](Cc2ccc(OCCN)cc2)C(=O)N[C@@H](Cc2ccc3ccccc3c2)C(=O)N[C@@](C)(CCCCN)C(=O)N[C@@H](CCCCNC(C)=O)C(=O)N[C@@H](CC(N)=O)C(=O)N[C@H](Cc2ccccc2)C(=O)N(C)[C@H](Cc2ccc(O)cc2)C(N)=O)NC1=O [compound 20, MeCO-Pen(3)-N-T-7MeW-K(Ac)-Pen(3)-AEF-2Nal-aMeK-K(Ac)-N-f-NMeDTyr-CONH2] | 300 |
| CC(=O)N[C@H](CCCNC(=N)N)C(=O)N[C@@H]1C(=O)N[C@@H](CCC(N)=O)C(=O)N[C@@H]([C@@H](C)O)C(=O)N[C@@H](Cc2c[nH]c3ccccc23)C(=O)N[C@@H](CCC(N)=O)C(=O)N[C@H](C(=O)N[C@@H](Cc2ccc(OCCN)cc2)C(=O)N[C@@H](Cc2ccc3ccccc3c2)C(=O)NC2(C(=O)N[C@@](C)(CCC(=O)O)C(=O)N[C@@H](CC(N)=O)C(=O)N[C@@H](Cc3ccccc3)C(=O)N(C)[C@H](Cc3ccc(O)cc3)C(N)=O)CCOCC2)C(C)(C)SSC1(C)C [compound 3, MeCO-r-Pen(3)-Q-T-W-Q-Pen(3)-AEF-2Nal-THp-aMeE-N-F-NMeDTyr-CONH2] | 2000 |
| CC(=O)NCCCC[C@@H]1NC(=O)[C@H](Cc2c[nH]c3c(C)cccc23)NC(=O)[C@H]([C@@H](C)O)NC(=O)[C@H](CC(N)=O)NC(=O)[C@@H](NC(C)=O)C(C)(C)SSC(C)(C)[C@@H](C(=O)N[C@@H](Cc2ccc(OCCN)cc2)C(=O)N[C@@H](Cc2ccc3ccccc3c2)C(=O)N[C@@](C)(CCCCN)C(=O)N[C@@H](CCCCNC(C)=O)C(=O)N[C@@H](CC(N)=O)C(=O)N[C@@H](Cc2ccccc2)C(=O)N(C)[C@H](Cc2ccc(O)cc2)C(N)=O)NC1=O [compound 7, MeCO-Pen(3)-N-T-7MeW-K(Ac)-Pen(3)-AEF-2Nal-aMeK-K(Ac)-N-F-NMeDTyr-CONH2] | 510 |
| CC(=O)NCCCC[C@@H]1NC(=O)[C@H](Cc2c[nH]c3c(C)cccc23)NC(=O)[C@H]([C@@H](C)O)NC(=O)[C@H](CC(N)=O)NC(=O)[C@@H](NC(C)=O)C(C)(C)SSC(C)(C)[C@@H](C(=O)N[C@@H](Cc2ccc(OCCN)cc2)C(=O)N[C@@H](Cc2ccc3ccccc3c2)C(=O)N[C@@](C)(CCCCN)C(=O)N[C@@H](CCCCNC(C)=O)C(=O)N[C@@H](CC(N)=O)C(=O)N[C@H](Cc2ccc(O)cc2)C(=O)N(C)[C@H](Cc2ccc(O)cc2)C(N)=O)NC1=O [compound 24, MeCO-Pen(3)-N-T-7MeW-K(Ac)-Pen(3)-AEF-2Nal-aMeK-K(Ac)-N-y-NMeDTyr-CONH2] | 180 |
| CC(=O)NCCCC[C@@H]1NC(=O)[C@H](Cc2c[nH]c3c(C)cccc23)NC(=O)[C@H]([C@@H](C)O)NC(=O)[C@H](CC(N)=O)NC(=O)[C@@H](NC(=O)[C@@H](CCCNC(=N)N)NC(C)=O)C(C)(C)SSC(C)(C)[C@@H](C(=O)N[C@@H](Cc2ccc(OCCN)cc2)C(=O)N[C@@H](Cc2ccc3ccccc3c2)C(=O)NC2(C(=O)N[C@@H](CCC(=O)O)C(=O)N[C@@H](CC(N)=O)C(=O)N[C@H](Cc3c[nH]cn3)C(=O)N(C)[C@H](Cc3ccc(O)cc3)C(N)=O)CCOCC2)NC1=O [compound 11, MeCO-r-Pen(3)-N-T-7MeW-K(Ac)-Pen(3)-AEF-2Nal-THP-E-N-h-NMeDTyr-CONH2] | > 16600 |
| CC(=O)NCCCC[C@@H]1NC(=O)[C@H](Cc2c[nH]c3c(C)cccc23)NC(=O)[C@H]([C@@H](C)O)NC(=O)[C@H](CC(N)=O)NC(=O)[C@@H](NC(=O)[C@@H](CCCNC(=N)N)NC(C)=O)C(C)(C)SSC(C)(C)[C@@H](C(=O)N[C@@H](Cc2ccc(OCCN)cc2)C(=O)N[C@@H](Cc2ccc3ccccc3c2)C(=O)NC2(C(=O)N[C@@H](CCC(=O)O)C(=O)N[C@@H](CC(N)=O)C(=O)N[C@@H](CC(N)=O)C(=O)N(C)[C@H](Cc3ccc(O)cc3)C(N)=O)CCOCC2)NC1=O [compound 12, MeCO-r-Pen(3)-N-T-7MeW-K(Ac)-Pen(3)-AEF-2Nal-THP-E-N-N-NMeDTyr-CONH2] | > 16600 |
| CC(=O)NCCCC[C@H](NC(=O)[C@](C)(CCCCN)NC(=O)[C@H](Cc1ccc2ccccc2c1)NC(=O)[C@H](Cc1ccc(OCCN)cc1)NC(=O)[C@H]1NC(=O)[C@H](Cc2ccc(C(N)=O)cc2)NC(=O)[C@H](Cc2c[nH]c3c(C)cccc23)NC(=O)[C@H]([C@@H](C)O)NC(=O)[C@H](CC(N)=O)NC(=O)[C@@H](NC(C)=O)C(C)(C)SSC1(C)C)C(=O)N[C@@H](CC(N)=O)C(=O)N[C@H](CCCCN)C(=O)N(C)[C@H](Cc1ccc(O)cc1)C(N)=O [compound 22, MeCO-Pen(3)-N-T-7MeW-4AmPhe-Pen(3)-AEF-2Nal-aMeK-K(Ac)-N-k-NMeDTyr-CONH2] | 160 |

Other lines, results leading:

| IC50 [nM] | Structure (SMILES) |
| --- | --- |
| 140 | CC(=O)NCCCC[C@@H]1NC(=O)[C@H](Cc2c[nH]c3c(C)cccc23)NC(=O)[C@H]([C@@H](C)O)NC(=O)[C@H](CC(N)=O)NC(=O)[C@@H](NC(C)=O)C(C)(C)SSC(C)(C)[C@@H](C(=O)N[C@@H](Cc2ccc(OCCN)cc2)C(=O)N[C@@H](Cc2ccc3ccccc3c2)C(=O)N[C@@](C)(CCCCN)C(=O)N[C@@H](CCCCNC(C)=O)C(=O)N[C@@H](CC(N)=O)C(=O)N[C@@H](C(=O)N(C)[C@H](Cc2ccc(O)cc2)C(N)=O)C(C)C)NC1=O [compound 14, MeCO-Pen(3)-N-T-7MeW-K(Ac)-Pen(3)-AEF-2Nal-aMeK-K(Ac)-N-v-NMeDTyr-CONH2] |
| 3.5 | CC(=O)NCCCC[C@@H]1NC(=O)[C@H](Cc2c[nH]c3c(C)cccc23)NC(=O)[C@H]([C@@H](C)O)NC(=O)[C@H](CC(N)=O)NC(=O)[C@@H](NC(C)=O)C(C)(C)SSC(C)(C)[C@@H](C(=O)N[C@@H](Cc2ccc(OCCN)cc2)C(=O)N[C@@H](Cc2ccc3ccccc3c2)C(=O)N[C@@](C)(CCCCN)C(=O)N[C@@H](CCCCNC(C)=O)C(=O)N[C@@H](CC(N)=O)C(=O)N[C@@H](Cc2cccnc2)C(=O)N(C)[C@H](Cc2ccc(O)cc2)C(N)=O)NC1=O [compound 30, MeCO-Pen(3)-N-T-7MeW-K(Ac)-Pen(3)-AEF-2Nal-aMeK-K(ac)-N-3Pya-NMeDTyr-CONH2] |
| 160 | CC(=O)NCCCC[C@@H]1NC(=O)[C@H](Cc2c[nH]c3c(C)cccc23)NC(=O)[C@H]([C@@H](C)O)NC(=O)[C@H](CC(N)=O)NC(=O)[C@@H](NC(C)=O)C(C)(C)SSC(C)(C)[C@@H](C(=O)N[C@@H](Cc2ccc(OCCN)cc2)C(=O)N[C@@H](Cc2ccc3ccccc3c2)C(=O)N[C@@](C)(CCCCN)C(=O)N[C@@H](CCCCNC(C)=O)C(=O)N[C@@H](CC(N)=O)C(=O)N[C@@H](CC(N)=O)C(=O)N(C)[C@H](Cc2ccc(O)cc2)C(N)=O)NC1=O [compound 13, MeCO-Pen(3)-N-T-7MeW-K(Ac)-Pen(3)-AEF-2Nal-aMeK-K(Ac)-N-N-NMeDTyr-CONH2] |
| 43 | CC(=O)NCCCC[C@@H]1NC(=O)[C@H](Cc2c[nH]c3c(C)cccc23)NC(=O)[C@H]([C@@H](C)O)NC(=O)[C@H](CC(N)=O)NC(=O)[C@@H](NC(C)=O)C(C)(C)SSC(C)(C)[C@@H](C(=O)N[C@@H](Cc2ccc(OCCN)cc2)C(=O)N[C@@H](Cc2ccc3ccccc3c2)C(=O)N[C@@](C)(CCCCN)C(=O)N[C@@H](CCCCNC(C)=O)C(=O)N[C@@H](CC(N)=O)C(=O)N[C@H](CCCN)C(=O)N(C)[C@H](Cc2ccc(O)cc2)C(N)=O)NC1=O [compound 18, MeCO-Pen(3)-N-T-7MeW-K(Ac)-Pen(3)-AEF-2Nal-aMeK-K(Ac)-N-orn-NMeDTyr-CONH2] |
| 53 | CC(=O)NCCCC[C@@H]1NC(=O)[C@H](Cc2c[nH]c3c(C)cccc23)NC(=O)[C@H]([C@@H](C)O)NC(=O)[C@H](CC(N)=O)NC(=O)[C@@H](NC(C)=O)C(C)(C)SSC(C)(C)[C@@H](C(=O)N[C@@H](Cc2ccc(OCCN)cc2)C(=O)N[C@@H](Cc2ccc3ccccc3c2)C(=O)N[C@@](C)(CCCCN)C(=O)N[C@H](CCCCNC(C)=O)C(=O)N[C@@H](CC(N)=O)C(=O)N[C@H](CCCCN)C(=O)N(C)[C@H](Cc2ccc(O)cc2)C(N)=O)NC1=O [compound 5, MeCO-Pen(3)-N-T-7MeW-K(Ac)-Pen(3)-AEF-2Nal-aMeK-k(Ac)-N-dK-NMeDTyr-CONH2] |
| 210 | CC(=O)NCCCC[C@@H]1NC(=O)[C@H](Cc2c[nH]c3c(C)cccc23)NC(=O)[C@H]([C@@H](C)O)NC(=O)[C@H](CC(N)=O)NC(=O)[C@@H](NC(C)=O)C(C)(C)SSC(C)(C)[C@@H](C(=O)N[C@@H](Cc2ccc(OCCN)cc2)C(=O)N[C@@H](Cc2ccc3ccccc3c2)C(=O)N[C@@](C)(CCCCN)C(=O)N[C@@H](CCCCNC(C)=O)C(=O)N[C@@H](CC(N)=O)C(=O)N[C@@H](C(=O)N(C)[C@H](Cc2ccc(O)cc2)C(N)=O)[C@H](C)O)NC1=O [compound 15, MeCO-Pen(3)-N-T-7MeW-K(Ac)-Pen(3)-AEF-2Nal-aMeK-K(Ac)-N-t-NMeDTyr-CONH2] |
| 64 | CC(=O)NCCCC[C@@H]1NC(=O)[C@H](Cc2c[nH]c3c(C)cccc23)NC(=O)[C@H]([C@@H](C)O)NC(=O)[C@H](CC(N)=O)NC(=O)[C@@H](NC(C)=O)C(C)(C)SSC(C)(C)[C@@H](C(=O)N[C@@H](Cc2ccc(OCCN)cc2)C(=O)N[C@@H](Cc2ccc3ccccc3c2)C(=O)N[C@@](C)(CCCCN)C(=O)N[C@H](CCCCNC(C)=O)C(=O)N[C@@H](CC(N)=O)C(=O)N[C@H](CC(C)C)C(=O)N(C)[C@H](Cc2ccc(O)cc2)C(N)=O)NC1=O (racemic) [compound 6, MeCO-Pen(3)-N-T-7MeW-K(Ac)-Pen(3)-AEF-2Nal-aMeK-k(Ac)-N-dL-NMeDTyr-CONH2] |
